Measured values published in paper PMC3589825, “The AFF4 scaffold binds human P-TEFb adjacent to HIV Tat” (eLife, 2013).

T1: fluorescein-labeled AFF4(32–67) peptide (human, N-terminus: C-FAM-GABA- (FAM = 5-carboxyfluoroscein, GABA = γ-amino-butyric acid spacer); C-terminal amide)
T1 construct: source: synthetic peptide (University of Utah DNA/Peptide Facility)
T1 peptide: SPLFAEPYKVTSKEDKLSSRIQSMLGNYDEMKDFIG

T2: AFF4(2–363) (human, UniProt Q9UHB7 2-363)
T2 sequence (looked up): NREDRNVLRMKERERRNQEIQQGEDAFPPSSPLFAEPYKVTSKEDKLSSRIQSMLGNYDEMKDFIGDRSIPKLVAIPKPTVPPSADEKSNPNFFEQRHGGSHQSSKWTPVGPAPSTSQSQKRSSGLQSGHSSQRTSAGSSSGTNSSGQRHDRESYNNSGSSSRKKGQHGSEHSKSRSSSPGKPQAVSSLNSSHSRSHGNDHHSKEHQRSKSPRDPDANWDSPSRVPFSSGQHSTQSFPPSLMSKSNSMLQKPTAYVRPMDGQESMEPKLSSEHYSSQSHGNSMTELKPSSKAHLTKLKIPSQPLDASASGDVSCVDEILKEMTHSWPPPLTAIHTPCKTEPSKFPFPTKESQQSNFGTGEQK


Biological target: T1, fluorescein-labeled AFF4(32–67) peptide
Assay: fluorescence polarisation
Conditions: both partners purified

Row | Binder | Kd [nM]
1 | cyclin T1 (CycT1) W207A (natural protein) not shown | 6050 ± 871
2 | cyclin T1 (CycT1) W210A (natural protein) not shown | 2190 ± 246
3 | cyclin T1 (CycT1) R165A (natural protein) not shown | 1590 ± 171

The remaining lines, values ahead:

Row | Kd [nM] | Binder
4 | 228 ± 18 | cyclin T1 (CycT1) Y175A (natural protein) not shown
5 | 356 ± 29 | cyclin T1 (CycT1) E211A (natural protein) not shown
6 | 645 ± 58 | cyclin T1 (CycT1) F176A (natural protein) not shown
7 | 438 ± 41 | cyclin T1 (CycT1) D169A (natural protein) not shown

biological target: T2, AFF4(2–363); assay: fluorescence polarisation; competition titration of unlabeled AFF4 segments against 5 nM fluorescent peptide with 75 nM CycT1, 45 nM P-TEFb or 6 nM Tat-P-TEFb; 25 mM HEPES pH 7.5, 100 mM NaCl, 10% glycerol, 0.1% NP40, 0.5 mM TCEP; conditions: both partners purified

Row | Kd [nM] | Binder
8 | 115 ± 15 | cyclin T1 (CycT1), purified alone, wild type (natural protein, source: purified) not shown
